{"source": "the supplement of paper PMC8728848", "assay_in_all_cases": "glycan array binding signal (z-score within array); higher = stronger binding", "conditions_in_all_cases": "glycan notation: IUPAC condensed, linker removed", "key": {"[1]": {"target": "Fuc(a1-3)[Gal(b1-4)]GlcNAc(b1-4)Gal(b1-4)[Fuc(a1-3)]GlcNAc", "outline": "(§1)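 Arrays were curated from the Consortium for Functional Glycomics database, 3228 in total, and kept only where the protein sequence was available. Binding is expressed as a within-array Z-score. This score was averaged across arrays of the same protein sequence at different concentrations or buffers and across linkers, and negative values can be read as non-binding.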"}, "[2]": {"target": "Fuc(a1-3)[Gal(b1-4)]GlcNAc(b1-4)Gal(b1-4)[Fuc(a1-3)]GlcNAc(b1-4)Gal(b1-4)[Fuc(a1-3)]GlcNAc", "outline": "as §1"}, "[3]": {"target": "Fuc(a1-3)[Gal(b1-4)]GlcNAc(b1-6)GalNAc", "outline": "as §1"}, "[4]": {"target": "Fuc(a1-3)[Gal(b1-4)]GlcNAc(b1-6)[Gal(b1-3)GlcNAc(b1-3)]Gal(b1-4)Glc", "outline": "as §1"}, "[5]": {"target": "Fuc(a1-3)[Gal(b1-4)]GlcNAc(b1-6)[Neu5Ac(a2-3)Gal(b1-3)]GalNAc", "outline": "as §1"}, "[6]": {"target": "Fuc(a1-3)[Gal(b1-4)]GlcNAc6S", "outline": "as §1"}, "[7]": {"target": "Fuc(a1-3)[Gal3S(b1-4)]GlcNAc", "outline": "as §1"}, "[8]": {"target": "Fuc(a1-3)[Gal3S(b1-4)]GlcNAc6S", "outline": "as §1"}, "[9]": {"target": "Fuc(a1-3)[GalNAc(b1-4)]GlcNAc", "outline": "as §1"}, "[10]": {"target": "Fuc(a1-3)[GalNAc(b1-4)]GlcNAc6S", "outline": "as §1"}, "[11]": {"target": "Fuc(a1-3)[GalNAc3S(b1-4)]GlcNAc", "outline": "as §1"}, "[12]": {"target": "Fuc(a1-4)GlcNAc", "outline": "as §1"}, "[13]": {"target": "Fuc(b1-3)GlcNAc", "outline": "as §1"}, "[14]": {"target": "Gal(a1-2)Gal", "outline": "as §1"}, "[15]": {"target": "Gal(a1-3)Gal", "outline": "as §1"}, "[16]": {"target": "Gal(a1-3)Gal(b1-3)GlcNAc", "outline": "as §1"}, "[17]": {"target": "Gal(a1-3)Gal(b1-3)GlcNAc(b1-2)Man(a1-3)[Gal(a1-3)Gal(b1-3)GlcNAc(b1-2)Man(a1-6)]Man(b1-4)GlcNAc(b1-4)GlcNAc", "outline": "as §1"}, "[18]": {"target": "Gal(a1-3)Gal(b1-3)GlcNAc(b1-3)GalNAc", "outline": "as §1"}, "[19]": {"target": "Gal(a1-3)Gal(b1-3)GlcNAc(b1-6)GalNAc", "outline": "as §1"}, "[20]": {"target": "Gal(a1-3)Gal(b1-3)[Fuc(a1-4)]GlcNAc(b1-2)Man(a1-3)[Gal(a1-3)Gal(b1-3)[Fuc(a1-4)]GlcNAc(b1-2)Man(a1-6)]Man(b1-4)GlcNAc(b1-4)GlcNAc", "outline": "as §1"}, "[21]": {"target": "Gal(a1-3)Gal(b1-4)Glc", "outline": "as §1"}, "[22]": {"target": "Gal(a1-3)Gal(b1-4)GlcNAc", "outline": "as §1"}, "[23]": {"target": "Gal(a1-3)Gal(b1-4)GlcNAc(b1-3)GalNAc", "outline": "as §1"}, "[24]": {"target": "Gal(a1-3)Gal(b1-4)GlcNAc(b1-6)GalNAc", "outline": "as §1"}, "[25]": {"target": "Gal(a1-3)Gal(b1-4)[Fuc(a1-3)]GlcNAc", "outline": "as §1"}, "[26]": {"target": "Gal(a1-3)Gal(b1-4)[Fuc(a1-3)]GlcNAc(b1-2)Man(a1-3)[Gal(a1-3)Gal(b1-4)[Fuc(a1-3)]GlcNAc(b1-2)Man(a1-6)]Man(b1-4)GlcNAc(b1-4)GlcNAc", "outline": "as §1"}, "[27]": {"target": "Gal(a1-3)GalNAc", "outline": "as §1"}, "[28]": {"target": "Gal(a1-3)[Gal(a1-4)]Gal(b1-4)GlcNAc", "outline": "as §1"}, "[29]": {"target": "Gal(a1-4)Gal(b1-3)GlcNAc(b1-2)Man(a1-3)[Gal(a1-4)Gal(b1-3)GlcNAc(b1-2)Man(a1-6)]Man(b1-4)GlcNAc(b1-4)GlcNAc", "outline": "as §1"}, "[30]": {"target": "Gal(a1-4)Gal(b1-4)Glc", "outline": "as §1"}, "[31]": {"target": "Gal(a1-4)Gal(b1-4)GlcNAc", "outline": "as §1"}, "[32]": {"target": "Gal(a1-4)Gal(b1-4)GlcNAc(b1-2)Man(a1-3)[Gal(a1-4)Gal(b1-4)GlcNAc(b1-2)Man(a1-6)]Man(b1-4)GlcNAc(b1-4)GlcNAc", "outline": "as §1"}, "[33]": {"target": "Gal(a1-4)Gal(b1-4)GlcNAc(b1-3)Gal(b1-4)Glc", "outline": "as §1"}, "[34]": {"target": "Gal(a1-4)GlcNAc", "outline": "as §1"}, "[35]": {"target": "Gal(a1-6)Glc", "outline": "as §1"}, "[36]": {"target": "Gal(b1-2)Gal", "outline": "as §1"}, "[37]": {"target": "Gal(b1-3)Gal", "outline": "as §1"}, "[38]": {"target": "Gal(b1-3)Gal(b1-4)GlcNAc", "outline": "as §1"}, "[39]": {"target": "Gal(b1-3)Gal(b1-4)GlcNAc(b1-2)Man(a1-3)[Gal(b1-3)Gal(b1-4)GlcNAc(b1-2)Man(a1-6)]Man(b1-4)GlcNAc(b1-4)GlcNAc", "outline": "as §1"}, "[40]": {"target": "Gal(b1-3)GalNAc", "outline": "as §1"}, "[41]": {"target": "Gal(b1-3)GalNAc(a1-3)[Fuc(a1-2)]Gal(b1-4)Glc", "outline": "as §1"}, "[42]": {"target": "Gal(b1-3)GalNAc(a1-3)[Fuc(a1-2)]Gal(b1-4)GlcNAc", "outline": "as §1"}, "[43]": {"target": "Gal(b1-3)GalNAc(b1-3)Gal(a1-4)Gal(b1-4)Glc", "outline": "as §1"}, "[44]": {"target": "Gal(b1-3)GalNAc(b1-4)Gal(b1-4)Glc", "outline": "as §1"}, "[45]": {"target": "Gal(b1-3)GalNAc(b1-4)[Neu5Ac(a2-3)]Gal(b1-4)Glc", "outline": "as §1"}}, "note": "The list shows a part of the results."}
{"binder": "SpnanA (Streptococcus pneumoniae), P62575 (protein) MVIEKEDVETNASNGQRVDLSSELDKLKKLENATVHMEFKPDAKAPAFYNLFSVSSATKKDEYFTMAVYNNTATLEGRGSDGKQFYNNYNDAPLKVKPGQWNSVTFTVEKPTAELPKGRVRLYVNGVLSRTSLRSGNFIKDMPDVTHVQIGATKRANNTVWGSNLQIRNLTVYNRALTPEEVQKRS", "values": [{"measurement": "glycan array binding signal (z-score)", "setting": "[1]", "result": -0.191}, {"measurement": "glycan array binding signal (z-score)", "setting": "[2]", "result": -0.223}, {"measurement": "glycan array binding signal (z-score)", "setting": "[3]", "result": -0.196}, {"measurement": "glycan array binding signal (z-score)", "setting": "[4]", "result": -0.29}, {"measurement": "glycan array binding signal (z-score)", "setting": "[5]", "result": 0.254}, {"measurement": "glycan array binding signal (z-score)", "setting": "[6]", "result": -0.155}, {"measurement": "glycan array binding signal (z-score)", "setting": "[7]", "result": -0.187}, {"measurement": "glycan array binding signal (z-score)", "setting": "[8]", "result": -0.244}, {"measurement": "glycan array binding signal (z-score)", "setting": "[9]", "result": -0.238}, {"measurement": "glycan array binding signal (z-score)", "setting": "[10]", "result": -0.281}, {"measurement": "glycan array binding signal (z-score)", "setting": "[11]", "result": -0.252}, {"measurement": "glycan array binding signal (z-score)", "setting": "[12]", "result": -0.275}, {"measurement": "glycan array binding signal (z-score)", "setting": "[13]", "result": -0.24}, {"measurement": "glycan array binding signal (z-score)", "setting": "[14]", "result": -0.212}, {"measurement": "glycan array binding signal (z-score)", "setting": "[15]", "result": -0.132}, {"measurement": "glycan array binding signal (z-score)", "setting": "[16]", "result": -0.287}, {"measurement": "glycan array binding signal (z-score)", "setting": "[17]", "result": 0.122}, {"measurement": "glycan array binding signal (z-score)", "setting": "[18]", "result": -0.3}, {"measurement": "glycan array binding signal (z-score)", "setting": "[19]", "result": -0.297}, {"measurement": "glycan array binding signal (z-score)", "setting": "[20]", "result": -0.133}, {"measurement": "glycan array binding signal (z-score)", "setting": "[21]", "result": -0.296}, {"measurement": "glycan array binding signal (z-score)", "setting": "[22]", "result": -0.256}, {"measurement": "glycan array binding signal (z-score)", "setting": "[23]", "result": -0.187}, {"measurement": "glycan array binding signal (z-score)", "setting": "[24]", "result": -0.31}, {"measurement": "glycan array binding signal (z-score)", "setting": "[25]", "result": -0.262}, {"measurement": "glycan array binding signal (z-score)", "setting": "[26]", "result": -0.014}, {"measurement": "glycan array binding signal (z-score)", "setting": "[27]", "result": -0.252}, {"measurement": "glycan array binding signal (z-score)", "setting": "[28]", "result": -0.202}, {"measurement": "glycan array binding signal (z-score)", "setting": "[29]", "result": -0.298}, {"measurement": "glycan array binding signal (z-score)", "setting": "[30]", "result": -0.238}, {"measurement": "glycan array binding signal (z-score)", "setting": "[31]", "result": -0.273}, {"measurement": "glycan array binding signal (z-score)", "setting": "[32]", "result": -0.242}, {"measurement": "glycan array binding signal (z-score)", "setting": "[33]", "result": -0.236}, {"measurement": "glycan array binding signal (z-score)", "setting": "[34]", "result": -0.169}, {"measurement": "glycan array binding signal (z-score)", "setting": "[35]", "result": -0.175}, {"measurement": "glycan array binding signal (z-score)", "setting": "[36]", "result": -0.252}, {"measurement": "glycan array binding signal (z-score)", "setting": "[37]", "result": -0.211}, {"measurement": "glycan array binding signal (z-score)", "setting": "[38]", "result": -0.263}, {"measurement": "glycan array binding signal (z-score)", "setting": "[39]", "result": -0.261}, {"measurement": "glycan array binding signal (z-score)", "setting": "[40]", "result": -0.254}, {"measurement": "glycan array binding signal (z-score)", "setting": "[41]", "result": -0.2}, {"measurement": "glycan array binding signal (z-score)", "setting": "[42]", "result": -0.201}, {"measurement": "glycan array binding signal (z-score)", "setting": "[43]", "result": -0.222}, {"measurement": "glycan array binding signal (z-score)", "setting": "[44]", "result": -0.251}, {"measurement": "glycan array binding signal (z-score)", "setting": "[45]", "result": -0.232}]}
